Reference: PMC3900686, “Mechanisms of the Scaffold Subunit in Facilitating Protein Phosphatase 2A Methylation” (PLoS ONE, 2014)

Target: the molecule itself
Assay: SEC; gel filtration chromatography of wild type and mutant A-subunits

Row | Protein | binding result
1 | A-subunit mutant A_E100A/E101K (natural protein, PP2A scaffold Aα-subunit, double mutant E100A/E101K; Probably made as the wild-type A-subunit) not shown | binds
2 | A-subunit mutant A_D61A/E62K (natural protein, PP2A scaffold Aα-subunit, double mutant D61A/E62K; Probably made as the wild-type A-subunit) not shown | binds
